PubChem BioAssay AID1159614 (National Center for Advancing Translational Sciences (NCATS), 2016)
In all, about 45,000 compounds went through this assay and about 65 (0.1%) were called active. Calls follow the shape of the dose curve; as a rule, active = well fitted activation curve with a large enough effect; inconclusive = small, poorly fitted or top-dose-only effect; inactive = no such curve, though single readings can be large or run the other way. This is one part of the list.

What follows are compounds tested against Galactocerebrosidase (Homo sapiens) (UniProt P54803) (assay: A Novel Cell-Based Assay to Identify Small Molecules for B -Galactocerebrosidase). Conditions: 145M-Twi-hGALC-G270D cells (Twitcher mouse brain line with human GALC G270D), HMU-beta-Gal fluorescence, 48 h; series mostly up to 57.5 µM; activation: at the top concentration.
Summary of the method: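 Fluorescence readout: HMU-β-gal cleavage by mutant GALC (0.1 mM final, citrate/phosphate pH 5.2 with 1 mg/mL taurocholate), stopped with carbonate/bicarbonate plus Triton X-100. Cells: murine Twitcher 145M-Twi expressing human G270D GALC; qHTS for activators.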
Also: 0% is about no effect; nearly all actives have a fitted effect of over 65% in size.

Chain of UniProt P54803 (P54803 whole entry, looked up): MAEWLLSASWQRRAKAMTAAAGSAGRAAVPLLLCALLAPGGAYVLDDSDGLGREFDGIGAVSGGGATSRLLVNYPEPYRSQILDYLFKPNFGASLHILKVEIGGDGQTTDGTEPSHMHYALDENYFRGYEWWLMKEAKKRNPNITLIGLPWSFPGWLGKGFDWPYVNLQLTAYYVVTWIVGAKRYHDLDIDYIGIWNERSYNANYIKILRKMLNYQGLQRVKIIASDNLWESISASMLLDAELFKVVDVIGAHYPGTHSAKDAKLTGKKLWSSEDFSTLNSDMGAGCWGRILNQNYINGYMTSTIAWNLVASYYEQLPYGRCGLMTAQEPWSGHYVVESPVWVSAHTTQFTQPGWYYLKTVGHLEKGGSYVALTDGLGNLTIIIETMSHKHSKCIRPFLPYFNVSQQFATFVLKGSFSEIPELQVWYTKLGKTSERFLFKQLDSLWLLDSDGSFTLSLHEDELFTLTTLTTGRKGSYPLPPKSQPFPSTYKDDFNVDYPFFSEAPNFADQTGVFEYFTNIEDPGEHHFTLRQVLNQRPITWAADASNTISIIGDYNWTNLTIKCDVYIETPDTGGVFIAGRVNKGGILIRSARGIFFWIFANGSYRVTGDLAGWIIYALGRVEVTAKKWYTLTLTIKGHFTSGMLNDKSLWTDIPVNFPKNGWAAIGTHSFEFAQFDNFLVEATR

activation, inactive:
Cc1csc2nc(COc3ccc(NC(=O)C(C)C)cc3)cc(=O)n12 0.771%
CCc1ccc(NC(=O)C2CCCN2S(=O)(=O)c2ccc3nc(-c4ccccc4)[nH]c3c2)cc1 (centres undefined) -23.8%
CCN(CC)S(=O)(=O)c1ccc2c(c1)c(=O)c(C(=O)NCCc1ccccc1)cn2C -13.8%
COc1ccc(C2CC(=O)c3cnc4c(-c5ccc(F)cc5)c(C)nn4c3C2)cc1OC (centres undefined) -13.7%
COc1ccc(-n2ncc(C(=O)N3CCN(C4CCCCC4)CC3)c2C2CCN(C(=O)OC(C)(C)C)CC2)cc1 1.88%
Cc1ccccc1NC(=O)CC1NCCNC1=O (centres undefined) -16.8%
C=CCc1ccccc1OCc1nc2ccc(C)cc2[nH]1 -13.8%
Cc1ccc(NC(=O)c2c3c(nc4ccccc24)C(=O)N(C2CCCCC2)C3)cc1F -19.7%
Cn1c(=O)n(CC(=O)O)c(=O)c2c1nc1n2CCCN1c1ccc(Cl)cc1 -10.4%
CCOC(=O)c1c(NC(=O)CSc2nc(-c3ccc(OC)cc3)cc(C(F)(F)F)n2)sc(C)c1C -16.3%
Cc1ccc(C2C=C(c3ccccc3)Nc3nc(NS(=O)(=O)c4ccc(C)cc4)nn32)cc1 (centres undefined) -8.18%
Cc1ccc2oc(=O)c3cnn(CC(=O)N4CCN(c5ccccc5F)CC4)c3c2c1 -11.7%
Cc1ccc(NC(=O)Nc2cn(C)c(=O)c3ccccc23)c(Cl)c1 -11.7%
Cc1cccc(N2CCN(C(=O)C3CCN(S(=O)(=O)c4c(C)noc4/C=C/c4ccccc4F)CC3)CC2C)c1 (centres undefined) -9.86%
CCc1ccccc1NC(=O)c1ccc(Cn2nc(N3CCN(c4ccccc4)CC3)ccc2=O)o1 -8.96%
Cc1cc(=O)n(Cc2ccccc2)c2c1c(C)nn2-c1ccccc1 -11.9%
Cc1ccc(CNC(=O)Cn2nc(N3CCN(c4ccccc4)CC3)ccc2=O)cc1 -8.95%
Cc1cccc(N2CCN(C(=O)c3cnn(-c4ccc(F)cc4F)c3C3CCN(C(=O)OC(C)(C)C)CC3)CC2)c1C -16.9%
CCOc1ccc(NC(=O)CC2C(=O)N(c3ccccc3)C(=O)N2C2CCCC2)cc1 (centres undefined) 5.31%
Cc1ccc(NC(=O)CSc2nc3ccccc3c(=O)n2CCC(=O)NC2CCCCC2)cc1C -3.4%
CCCNC(=O)CSc1c2c(nc3ccc(Cl)cc13)CCCC2 -2.11%
CCOC(=O)c1cc2c(=O)n3ccccc3nc2n(Cc2ccco2)c1=NC(=O)c1cccc(C)c1 -1.7%
CCCn1c2ccccc2c2cnn(CC(=O)N(CC)c3cc(C)ccc3C)c(=O)c21 -8.26%
CCOc1ccccc1NC(=O)c1cc2cc3cc(C)ccc3nc2s1 -9.77%
COc1ccc(-n2c(SCC(=O)NCc3ccco3)nc3c([nH]c4ccccc43)c2=O)cc1 -2.9%
CNC(=O)CCCN1C(=O)CCn2nc(-c3cn(C)c4ccccc34)cc21 -12.8%
COc1ccc(OCC(=O)Nc2cccc(C(=O)OCc3cc(=O)n4nc(C)sc4n3)c2)cc1 0.413%
COc1cccc(NC(=O)c2sc3nc(C)c(C(=O)Nc4ccc(C)cc4C)c(-c4ccco4)c3c2N)c1 -22%
CCc1cccc(NC(=O)CSc2nc3ccccc3nc2N2CCCCC2)c1 -19%
COCc1cc(C)nc2sc(C(=O)Nc3ccc(C(C)=O)cc3)c(N)c12 -5.2%
Cc1nc2c3ccccc3nc(NNC(=O)CCC(=O)N3CCN(c4cc(Cl)ccc4C)CC3)n2n1 -17.1%
Cc1ccc(C)c(N2CCN(C(=O)CCS(=O)(=O)c3cc(Br)cc4c3N(C(=O)C3CC3)CC4)CC2)c1 -14.7%
CCC(=O)N1CCc2cc(CNS(=O)(=O)c3ccc(C(C)C)cc3)ccc21 -21.3%
COc1cc2nc(NCCc3ccccc3)n3nc(-c4cccnc4)nc3c2cc1OC -15.1%
CCOC(=O)c1c(NC(=O)/C=C/c2ccc(OCC)cc2)sc(C(C)=O)c1C -3.99%
Cc1nn(-c2ccccc2)c2sc(C(=O)Nc3cccc(Cl)c3)cc12 6.57%
COC(=O)c1ccc2c(=O)n(CCCCCC(=O)N3CCN(c4cc(C)ccc4C)CC3)c(=O)[nH]c2c1 -2.74%
CCCSc1ncc(Cl)c(C(=O)N2CCN(c3cccc(Cl)c3)CC2)n1 0.131%
CCOc1ccc(NC(=O)CC2C(=O)N(c3ccc(OC)cc3)C(=O)N2C2CCCCC2)cc1 (centres undefined) -17.1%
COc1cc(NC(=O)CCc2c(C)nc3c(-c4ccc(F)cc4)c(C)nn3c2C)cc(OC)c1OC -13.1%
COc1ccc(CNC(=O)C(Cc2ccccc2)NS(=O)(=O)c2ccc3c(c2)CCN3C(C)=O)cc1 (centres undefined) 4.62%
O=C(C1CCC(Cn2c(=O)c3sccc3n(Cc3cccc(F)c3)c2=O)CC1)N1CCOCC1 (centres undefined) -10.3%
N#C/C(=C/c1ccccc1Cl)c1nc2ccccc2c(=O)[nH]1 -6.58%
CCCCCCNC(=O)c1c[nH]c2ccc(S(=O)(=O)N(C)c3ccc(C(C)C)cc3)cc2c1=O -5.45%
Cc1ccc(Cl)cc1N(C)C(=O)c1cc2c(Cl)nc3ccccc3c2s1 -33.3%
COc1ccc(N2CCN(C3(c4ccccc4)C(=O)c4ccccc4C3=O)CC2)cc1 -11.5%
COc1ccc(N2C(=O)CSC23C(=O)N(CC(=O)Nc2ccccc2F)c2ccccc23)cc1 (centres undefined) -19.2%
Clc1cccc(-c2nc3ccccn3c2Nc2ccc3c(c2)OCCO3)c1 10.9%
COC(=O)c1ccc(Nc2nc(-c3ccccc3Cl)nc3ccccc23)cc1 -6.26%
Cc1cccc(C(=O)Nc2cc3nn(-c4ccc(C(C)C)cc4)nc3cc2C)c1 -3.5%
Cc1cc2nn(-c3ccc(F)cc3)nc2cc1NC(=O)c1cccc([N+](=O)[O-])c1C -7.78%
COc1cccc(OC(=O)CSc2nnc(-c3cccs3)o2)c1 1.04%
CC(=O)Nc1ccc(Nc2nc3c(S(=O)(=O)c4cc(C)ccc4C)nnn3c3ccsc23)cc1 -1.25%
Cc1ccc(N(C)C(CNS(=O)(=O)c2ccccc2)c2ccccc2)cc1 (centres undefined) -7.82%
COc1ccccc1NC(=O)CSc1ccc(-c2ccccn2)nn1 -12.5%
COc1cccc(CNC(=O)Cn2nc(-c3ccc(C)cc3)ccc2=O)c1 -16.5%
Cc1cc(OC(C)C(=O)N2CCC(c3nc4ccccc4o3)CC2)ccc1Cl (centres undefined) 0.103%
COc1ccc(-n2ccnc2SCC(=O)Nc2cccc(OC)c2)cc1 2.44%
CCCCN(C)S(=O)(=O)c1ccc(NC2=NS(=O)(=O)c3ccccc32)cc1 -9.72%
Cc1ccc(CNC(=O)C2CCC(CNS(=O)(=O)c3ccc(C)cc3)CC2)cc1 (centres undefined) -14.2%
Cc1ccc(NC(=O)Cn2cc(C(=O)c3ccco3)c3ccccc32)cc1C -14.7%
CCn1ccc2cc(S(=O)(=O)N3CCCN(C(=O)Nc4cccc(SC)c4)CC3)ccc21 -27%
CCCNC(=O)C1CCN(C(=O)N2CC(C)Oc3ccccc32)CC1 (centres undefined) -14.5%
COc1ccc(-c2ccc(CNCCCSc3nnnn3C)o2)cc1Cl -10.7%
COc1ccc(-n2ncc(C(=O)N3CCN(C(=O)c4ccco4)CC3)c2C2CCN(C(=O)OC(C)(C)C)CC2)cc1 -2.76%
CC(C)Cc1ccc(S(=O)(=O)NCc2nc3cccnc3n2Cc2ccccc2)cc1 7.48%
Cc1ccc(-n2nc3c(N4CCC(C(=O)NC5CCCCC5)CC4)nnc(C)c3c2C)cc1 -3.69%
Cc1cc2oc(C(=O)Nc3ccc(S(=O)(=O)N4CCC(C)CC4)cc3)cc(=O)c2cc1C 7.78%
Cc1ccc(/C=C/C(=O)N2CCC(c3nc4ccccc4o3)CC2)cc1 0.678%
COc1ccc(NC(=O)c2c(NCc3ccc(OC)c(OC)c3OC)sc3c2CCC3)c(OC)c1 -17.5%
CCCCCOc1ccccc1CN1C(=O)C(=O)c2cc(C)ccc21 -33.6%
CC1=C(c2ccc(C)c(C)c2)S(=O)(=O)N=C1N1CCC(C(=O)NCc2ccccc2C)CC1 -10.4%
Cc1cccc(-c2noc(-c3ccc(NCc4ccccc4)c([N+](=O)[O-])c3)n2)c1 2.72%
COc1ccccc1N1CCN(CCCNC(=O)c2nnc(Cc3ccc(F)cc3Cl)o2)CC1 -8.55%
Cc1ccc(NC(=O)CN2C(=O)COc3ccc(S(=O)(=O)N4CCOCC4)cc32)cc1N(C)C -18.1%
Cc1ccc(N(C)S(=O)(=O)c2ccc(-c3coc(C)n3)cc2)cc1 -14.1%
COc1cc(C2C(C(=O)Nc3ccc(Cl)cc3)=C(C)Nc3nc(SC)nn32)cc(OC)c1OC (centres undefined) -8.05%
Cc1nn(CC(=O)NCCc2ccccc2)c(=O)c2nn(-c3ccccc3)c(C)c12 -8.89%
CC1=C(C(N)=O)C(c2cccc(Br)c2)n2nc(SCc3ccccc3Cl)nc2N1 (centres undefined) -4.05%
CCc1nc2ccc(C(=O)N3CCN(c4cc(C)ccc4C)CC3)cc2nc1CC -20.9%
CCOc1ccc(CCNC(=O)c2cc3sccc3n2CC)cc1OCC -2.56%
Fc1ccc(CSc2nncn3c2cc2occc23)c(Cl)c1 -4.02%
Cc1cc(C)c2oc(-c3ccc(NC(=O)COc4ccccc4C)cc3)nc2c1 -12.1%
CCOCCCn1c(SCC(=O)NCc2ccccc2)nc2c(sc3ccccc32)c1=O -5.91%
COc1ccc(NC(=O)c2nnn(CC(=O)Nc3cccc(C)c3C)c2N)c(OC)c1 -12.7%
Cc1cccc(CCNC(=O)c2cc3c(=O)[nH]c4ccc(C)cc4c3s2)c1 -25.9%
Clc1ccc2c(c1)CCc1cccnc1C2=C1CCNCC1 -14.1%
COc1ccccc1CNc1nc2ccccc2c2nc(-c3cccc(C)c3)nn12 -8.98%
COc1ccc(-c2nc3sc(CCNC(=O)C(=O)Nc4cc(F)ccc4F)c(C)n3n2)cc1 -15.8%
COc1cc([N+](=O)[O-])ccc1NC(=O)N1CCC2(CC1)Nc1ccccc1-n1cccc12 -10.4%
COc1ccc2cc3cc(C(=O)N4CCN(c5cccc(C(F)(F)F)c5)CC4)sc3nc2c1 6.38%
CCn1cc(C(=O)NCCN(CC(C)C)CC(C)C)c(=O)c2cc(S(=O)(=O)N(C)C3CCCCC3)ccc21 -18.2%
CCOc1ccc(C(=O)Nc2cccc(NC(=O)c3ccc(Cl)cc3Cl)c2)cc1 -2.63%
Cc1cccc(NC(=O)CN(C)S(=O)(=O)c2ccc3c(c2)CCC(=O)N3)c1C -22.6%
